{"source": "PubChem BioAssay AID743279", "about": "(National Center for Advancing Translational Sciences (NCATS), 2014)", "note": "Hit rate of the full screen: of about 360,000 compounds, about 17,000 (4.7%) were called active. Inconclusive results, whose numbers are uncertain, are shown with a selection of clear calls. Rule as the data show it: active = activity change below about -50%; inconclusive = mostly about -30% to -49%; inactive = weaker than that.", "data": [{"assay": "qHTS for Inhibitors of Inflammasome Signaling: IL-1-beta AlphaLISA Primary Screen", "details": "THP-1 LPS/ATP IL-1B secretion, 16 h; at 57.5 µM, active compounds read low", "summary_of_the_method": "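THP-1 cells pretreated 1 hr with compounds (up to 57.5 uM final), then stimulated with LPS (250 ng/mL final) plus ATP (1.25 mM final); secreted IL-1B measured by AlphaLISA after 16 hr, decreased signal indicating inhibition.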", "values": [{"compound": "CC(C)CC1NC(=O)N(CC(=O)Nc2cccc(Br)c2)C1=O", "note": "(stereo unspecified); also: % is scaled to controls: 0 for no effect and ±100 for the full control effect", "activity change": "inactive: 0%"}, {"compound": "Cc1cc(C)c(C(=O)COC(=O)c2cccc(S(=O)(=O)NCc3ccccc3)c2)cc1C", "activity change": "inactive: 22.5%"}, {"compound": "CCOC(=O)C1(Cc2ccc(Cl)cc2)CCN(Cc2cn(CC)nc2C)CC1", "activity change": "inconclusive: -31.6%"}, {"compound": "COc1cccc(C(O)c2nc(-c3cccc(C(F)(F)F)c3)cs2)c1", "note": "(stereo unspecified)", "activity change": "inactive: 14.4%"}, {"compound": "c1ccc2nc(-c3ccncc3)ccc2c1", "activity change": "inconclusive: -33.2%"}, {"compound": "O=c1c2ccccc2c(C=NCCc2ccccc2)c(O)n1Cc1ccccc1", "activity change": "inconclusive: -30.1%"}, {"compound": "O=c1c2ccccc2nc(COc2ccccc2)n1/N=C/c1ccco1", "activity change": "inconclusive: -40.3%"}, {"compound": "O=C(Nc1cccc(Cl)c1)c1ccc(F)c(S(=O)(=O)N2CCN(c3ccccn3)CC2)c1", "activity change": "inactive: -3.76%"}, {"compound": "Cc1ccc(S(=O)(=O)N2CCCC(C(=O)NCCC(C)C)C2)cc1", "note": "(stereo unspecified)", "activity change": "inactive: 24.3%"}, {"compound": "Cc1cccc(/C=N/NC(=O)c2c(-c3ccccc3)noc2C)c1O", "activity change": "inactive: 135%"}, {"compound": "CCOC(=O)C(Cc1ccnnc1)=NO", "activity change": "inconclusive: -34.7%"}, {"compound": "Cc1ccc(N2C(=O)C(CN3CCCC3)C2c2ccccc2)cc1", "note": "(stereo unspecified)", "activity change": "inconclusive: -43.7%"}, {"compound": "CC(=O)c1ccc(NC(=O)c2ccccc2Sc2ncnc3sc(C)c(C)c23)cc1", "activity change": "inconclusive: -37%"}, {"compound": "c1ccc(CCC2Cc3ccccc3N2)cc1", "note": "(stereo unspecified)", "activity change": "inactive: -4.48%"}, {"compound": "CCOc1ccc(S(=O)(=O)N2CCC(C(=O)Nc3ccccc3N3CCCC3)CC2)cc1", "activity change": "inconclusive: -40.1%"}, {"compound": "O=C(N/C(=C/c1ccc(Br)cc1)C(=O)N1CCCC1=O)c1ccco1", "activity change": "inconclusive: -40.1%"}, {"compound": "C=CCN(CC=C)CCCOc1ccc(C)cc1OC", "activity change": "inactive: 0%"}, {"compound": "CCC1CCCCN1CCCNC(=O)CCCOc1cc(=O)n(C)c2ccccc12", "note": "(stereo unspecified)", "activity change": "inconclusive: -41.6%"}, {"compound": "Cc1ccc(C(NC(=O)c2cccc(S(=O)(=O)N3CCN(C)CC3)c2)c2ccccc2)cc1", "note": "(stereo unspecified)", "activity change": "inconclusive: -39.8%"}, {"compound": "Fc1ccc(/C=C/c2nnc(-c3cccs3)o2)cc1", "activity change": "inconclusive: -31.1%"}, {"compound": "CNCC[C@@H](Oc1ccccc1C)c1ccccc1", "activity change": "inconclusive: -31%"}, {"compound": "O=[N+]([O-])c1cccc(/C=N/NC2=NCCCCC2)c1", "activity change": "inactive: -25.4%"}, {"compound": "O=C(Oc1ccccc1C(=O)Nc1ccccc1)c1ccc(Br)c([N+](=O)[O-])c1", "activity change": "active: -73.1%"}, {"compound": "Cc1cc(C(c2nnnn2Cc2ccccc2)N2CCOCC2)c(C)n1-c1ccc2c(c1)OCO2", "note": "(stereo unspecified)", "activity change": "active: -96.6%"}, {"compound": "Cc1ccc(CNC(=O)CS(=O)Cc2nc(-c3ccccc3C)oc2C)cc1", "note": "(stereo unspecified)", "activity change": "inconclusive: -32.4%"}, {"compound": "CCCC(NCC(=O)Nc1cc(S(=O)(=O)N2CCOCC2)ccc1OC)c1ccccc1", "note": "(stereo unspecified)", "activity change": "inconclusive: -37.8%"}, {"compound": "CCC1=NN(C(=O)COc2ccccc2)C(O)(c2ccncc2)C1", "note": "(stereo unspecified)", "activity change": "inactive: -17.2%"}, {"compound": "CS(=O)(=O)N(CC(=O)Nc1cccc(Cl)c1Cl)c1ccccc1", "activity change": "inactive: 13.1%"}, {"compound": "O=C(CSc1nc2ccccc2c(=O)n1CCCC(=O)N1CCCC1)NCc1ccco1", "activity change": "inconclusive: -32.4%"}, {"compound": "CC(C)C[C@H]1CN=C(Nc2ccccc2)N1CCc1cccc(F)c1", "activity change": "active: -52.4%"}, {"compound": "CCOc1ncccc1C(=O)NCc1ccc(OC)cc1", "activity change": "inactive: 7.71%"}, {"compound": "O=C(c1ccc2nc3ccccc3c(=O)n2c1)N1CCN(Cc2ccc3c(c2)OCO3)CC1", "activity change": "inconclusive: -32.3%"}, {"compound": "Cc1cccn2c(=O)c3cc(C(=O)NC4CCCCC4)c(=N)n(Cc4ccccc4)c3nc12", "activity change": "active: -86.4%"}, {"compound": "NC(=S)N/N=C/c1ccccc1OC(=O)/C=C/c1ccccc1", "activity change": "inconclusive: -40.4%"}, {"compound": "O[C@@H]1CN(Cc2ccc(-n3cccn3)cc2)CC[C@H]1N1CCN(c2ccccc2F)CC1", "activity change": "active: -61.9%"}, {"compound": "CCCCCCn1c(N2CCN(c3cccc(Cl)c3)CC2)nc2c1c(=O)[nH]c(=O)n2C", "activity change": "inconclusive: -37.4%"}, {"compound": "COc1ccc(OC)c(C2=CC(=O)C[C@H](c3ccc(F)cc3)C2)c1", "activity change": "inconclusive: -32.6%"}, {"compound": "COc1ccc(Cl)cc1NC(=O)C(C)N1CCN(C/C=C/c2ccccc2)CC1", "note": "(stereo unspecified)", "activity change": "active: -58.9%"}, {"compound": "O=C(N[C@@H](Cc1ccccc1)C(=O)N[C@@H](Cc1ccccc1)C(=O)O)OCc1ccccc1", "activity change": "inactive: 28.2%"}, {"compound": "CCCCN(CC)CCCNC(=O)c1ccc(CS(=O)(=O)c2c(Cl)cccc2Cl)o1", "activity change": "active: -77.8%"}, {"compound": "COc1ccccc1/C=N/NC(=O)CO", "activity change": "inactive: 26.9%"}, {"compound": "O=C1c2ccccc2C2=Nc3ccccc3SC(c3ccccc3F)C12", "note": "(stereo unspecified)", "activity change": "inconclusive: -31.5%"}, {"compound": "O=C(/C=C/c1cccc([N+](=O)[O-])c1)c1cccs1", "activity change": "active: -88.1%"}, {"compound": "c1ccc2c(c1)Nc1ccncc1S2", "activity change": "active: -94.1%"}, {"compound": "COCCN(C(=O)c1ccccc1F)c1nc(-c2ccc(OC)cc2)cs1", "activity change": "inconclusive: -38.7%"}, {"compound": "CCc1ccc(-c2nc(CN3CCC(C(=O)NCc4ccccc4OC)CC3)c(C)o2)cc1", "activity change": "inconclusive: -30.7%"}, {"compound": "CC(=O)Nc1ccc(S(=O)(=O)Nc2cc(S(=O)(=O)N3CCCCC3)ccc2O)cc1", "activity change": "inactive: 4.13%"}, {"compound": "CN1CCN(c2ccc(S(=O)(=O)N3CCCCC3)cc2NC(=O)CSCc2ccccc2)CC1", "activity change": "inconclusive: -35.1%"}, {"compound": "CC(C)(C)NC(=O)c1ccc2c(c1)C1C3CCC(C3)C1C(c1ccccc1)N2", "note": "(stereo unspecified)", "activity change": "inconclusive: -36.2%"}, {"compound": "Cc1cccc2c1-c1sc(C(=O)N3CCc4ccccc4C3)cc1CO2", "activity change": "inconclusive: -31.6%"}, {"compound": "Cc1cc(C)c2sc(NC(=O)c3ccc([N+](=O)[O-])o3)nc2c1", "activity change": "inconclusive: -41.8%"}, {"compound": "CCCN(C(=O)c1ccccc1Cc1ccccc1)C1CCS(=O)(=O)C1", "note": "(stereo unspecified)", "activity change": "inactive: 9.51%"}, {"compound": "O=C(Nc1ccc2ccccc2c1)c1ccc(Br)o1", "activity change": "inconclusive: -37.3%"}, {"compound": "COCCn1c(N)c(N(Cc2ccccc2)C(=O)CSCC(=O)Nc2ccc(C)cc2)c(=O)[nH]c1=O", "activity change": "inactive: 0.38%"}, {"compound": "CCOc1ccc(NC(=O)CN2C(=O)COc3ccc(Cl)cc32)cc1", "activity change": "inactive: 2.36%"}, {"compound": "COc1ccc(C(=O)Nc2ccccc2N2CCN(C(=O)c3ccccc3)CC2)cc1Br", "activity change": "inconclusive: -45.5%"}]}]}
